Read counts are not given, so values of variants with three or more changes are uncertain.

B1: CPEB3 Ribozyme (parent)
chain: UAACAGGGGGCCACAGCAGAAGCGUUCACGUCGCAGCCCCUGUCAGAUUCUGGUGAAUCUGCGAAUUCUGCUGUAUAUCUC

The data set covers variants of B1. Put plainly: self-cleavage, relative activity (ratio to wild type); higher = more cleavage; in vitro, sequencing. The method, boiled down:
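Libraries of CPEB3 self-cleaving ribozyme mutants came from rounds of error-prone PCR and carried barcodes, which DNA sequencing matched to variants. In vitro transcription used T7 RNA polymerase at 37°C for 5 hours, with a further 15 min in DNase I before EDTA stopped the reaction; the ribozymes cleaved during both steps. The RNA was reverse transcribed with template switching and sequenced on Illumina. Relative activity is the cleaved/total read fraction of a variant divided by that of the unmutated ribozyme, averaged over three batches with at least 5 reads.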
A5U U43C U51A U67G G73A U74C C79U: the self-cleavage was determined as 0.58.

For A5U A57G U80C, the self-cleavage was determined as 1.07. The value for A5U G24A U25C A45G U49C was 0.07; that for A5U U31C A64G was 0.83. The value for A5U A21G A35G U69A U76C was 0.53; that for A5U G9A G16U U43C C50G U66C U69C was 0.05; that for A5U A77U U80C was 1.11. Under A5U U43A A56C U66A U72A stands 0.25. Take A5U U43C U66C: the self-cleavage was 0.34. The value for A5U C23A A45C was 0.28. On to A5U A45G G52C A64U, for which the self-cleavage was 0.22. Under A5U C14U G19U G33A G61A G73U stands 0.09. Regarding A5U G9C A28G U74C, the self-cleavage stood at 0.31. For the variant A5U A20G U72C U76C U80C, the self-cleavage was determined as 1.15. Under A5U U41A U74C stands 0.47; under A5U U43A G61C A64G A65G U80C, 0.17.

A5U A21G U25C A77G: the self-cleavage was 0.17. Under A5U C12U A18G U26C A35U U41A U76A stands 0.24. The value for A5U U26C U80C was 0.67; that for A5U U25C U67C U72C was 0.26; that for A5U G7A A21G U25C was 0.29. For A5U U26A A28C U72A A77G, the self-cleavage is 0.63. Consider A5U G7A C37G U41A A57G U58C, for which the self-cleavage was 0.04. The value for A5U G19U G30A U51A U58C A64U was 0; that for A5U C17G C40A U49C C50U U54C was 0.08. A5U A56G U80A: the self-cleavage was found to be 1.02. Turning to A5U U31A U58C U60C, the self-cleavage was 0.12. The value for A5U G10A A15G A18U U25C A65U was 0.05; that for A5U U26A U31C G46U was 0.53; that for A5U A21G U41A G52U was 0.13.

Regarding A5U A35U U54G, the self-cleavage was found to be 0.5. Under A5U G36C U41C A45G stands 0.12.

Regarding A5U C11G A20G U43A A45U, the self-cleavage was found to be 0.28. Consider A5U C29U C62G, for which the self-cleavage was 0.31. In the case of A5U C11U C29U U48C U51C A56U U66A, the self-cleavage is 0.04. Under A5U A65G U66C stands 0.5; under A5U C38U U41A U58C U72C, 0.11; under A5U U26A U78C, 1. The value for A5U A57G U69C was 0.6; that for A5U U26A A35U U80A was 0.63; that for A5U G30A U41A U67A U76C was 0.11. With A5U A21G U25A A45G G73A U78C, the self-cleavage is 0.14. Regarding A5U A20U A77G, the self-cleavage is 0.33.

For the variant A5U G8C A35G A45G U72C U80C, the self-cleavage was determined as 0.09. The value for A5U G33A C50U U72C U78C was 0.08. The value for A5U G10A U31G U48C was 0.23; that for A5U U25C U41A U43A was 0.41. The value for A5U C14A U43C A56U was 0.26; that for A5U U41A A56G U67A was 0.18. On to A5U G73A A75G, for which the self-cleavage amounted to 1.41. The value for A5U G8U C38U U49C A65C U69C A75G was 0.03; that for A5U G8C G9U U66A was 0.09.

Consider A5U C17U U41A U80A, for which the self-cleavage was determined as 0.1.

In the case of A5U U26C A77C, the self-cleavage amounted to 0.46. The value for A5U U48A U69C U72A was 0.1. Under A5U U31C A45G U60G U78C stands 0.11; under A5U U26C G30U U31A U41C, 0.15. With A5U G30U U31C U80C, the self-cleavage came to 0.16. Turning to A5U G7U A15G U25C U41C U66C U78C, the self-cleavage was found to be 0.06. Under A5U C14U A35G U66C A77U stands 1.29; under A5U C17U C23A U31C A64U, 0.07; under A5U G8C U54C U69C, 0.17.

For the variant A5U U31C U51C A65G, the self-cleavage stood at 0.28.

In the case of A5U C11U U26C, the self-cleavage is 0.48. Under A5U A28U C32U U49A C68A U74C A77G stands 0.08; under A5U U25C U43C U80C, 0.45. Take A5U G7C A56G: the self-cleavage was found to be 0.44. Under A5U G10C U60C stands 0.21. Take A5U G22A U31G U41G: the self-cleavage is 0.12. The value for A5U U31C A75G U80C was 0.61; that for A5U A65G U69C U72A was 0.16. For the variant A5U C11G U26C C29U U51A A56U, the self-cleavage was 0.04. The value for A5U C12G A20G U43A A45U U51A U60C was 0.12; that for A5U C34U A35U was 0.35; that for A5U A35U U41C was 0.4. With A5U U25C U41A, the self-cleavage is 0.4. The value for A5U A35U U72C was 0.76; that for A5U C44U U66G U76C was 0.09. The value for A5U A21G C29U was 0.47; that for A5U A21G U41A U80C was 0.5; that for A5U A35G C59U was 1.23. Under A5U U26A A35G A47U U49C U69C stands 0.25; under A5U U26G C39U A56G C59U U60A, 0.11. Consider A5U A64G U69G, for which the self-cleavage amounted to 0.52. Turning to A5U U41C A47G U67A U69C G73A U78C, the self-cleavage worked out at 0.2. Under A5U G8A U69C stands 0.08.

With A5U U25C U26A C40U, the self-cleavage worked out at 0.12. In the case of A5U G8A U54A A56U, the self-cleavage amounted to 0.08.

A5U A35G A56U U60C: the self-cleavage turned out to be 0.53. Under A5U U26A A35G U49C U54A stands 0.84; under A5U A45U G53A U72G, 0.69. Regarding A5U A21G A45C, the self-cleavage stood at 0.62. The value for A5U U26A U51C was 1.02. The value for A5U G7A U25A A45U A56G was 0.07.

With A5U G24U U49A A64G, the self-cleavage is 0.46. Under A5U G7U A35G A64U stands 0.19. The value for A5U A21U A57G U58C U72A was 0.14; that for A5U A28G A57G was 0.55. The value for A5U C17G U51G was 0.34; that for A5U A21U U48A U54C U66C was 0.06; that for A5U U41C U49C A77U U80C C81U was 0.57.

Turning to A5U G9U A35U C38U U43G A57U U74A, the self-cleavage is 0.04.

As for A5U G6U U25C U26G U41A A56G A57G, the self-cleavage turned out to be 0.09. The value for A5U U25C A35G A77U was 0.15; that for A5U A20U U31A C37U C59U was 0.09. Under A5U C40U U54A stands 0.87; under A5U C59A A77G, 0.24; under A5U C17G U66C, 0.27. On to A5U G8U A18U C62G, for which the self-cleavage was 0.09. Under A5U C12U A57G stands 1.15; under A5U U25C A56U U58C U69A U72A U80A, 0.08; under A5U U25C U72A U80C, 0.56. For the variant A5U U26C C50A G53U A75G, the self-cleavage was determined as 0.2. Under A5U C12U U49A stands 0.78; under A5U U48C U51A A57U U66A, 0.08; under A5U U31C U49C G55C C62A A64G, 0.19. Under A5U G8C U54A A57G U66C U72A stands 0.23. For A5U G22U A28G A35C A45G A56G C79U, the self-cleavage came to 0.28. The value for A5U U31A C32A U49A was 0.27. Under A5U C14U A28G stands 0.6; under A5U U26C A35G A45G, 0.85; under A5U G53C A64U, 0.35. Under A5U G33A U49C U54C stands 0.03; under A5U C40U U48G U54C C62A, 0.04; under A5U C14U U25C A64U C68A, 0.32. For the variant A5U C39A A64U, the self-cleavage was 0.12.

Turning to A5U U25C C38U, the self-cleavage worked out at 0.18. Regarding A5U A65G U72A, the self-cleavage came out at 0.75. The value for A5U U48A G52U U66C was 0.21; that for A5U G8U A64U was 0.13. The value for A5U G33A U78C was 0.4; that for A5U C38U U49G U54A U67C U78C was 0.05; that for A5U U31A U58A was 0.26. Under A5U A57U C59A stands 0.29.

A5U C11G A28C A56G U72C U78C: the self-cleavage came to 0.11. For the variant A5U C11G A13U C38A, the self-cleavage worked out at 0.4. Take A5U U25C A45G U67C: the self-cleavage came out at 0.12. Under A5U C12U C23G U43C U49C stands 0.15. The value for A5U C11U U41A U60C was 0.15; that for A5U C11G A65G U72C was 0.09.

In the case of A5U C32U C39A C50A, the self-cleavage amounted to 0.39. Take A5U C27G U41A: the self-cleavage is 0. Under A5U C12U A18G C37G U43A A47G U51C stands 0.25; under A5U A35G C37U, 1.23. Take A5U U25C A57U: the self-cleavage is 0.36.

Regarding A5U U26A A56G C62G G70U U74C C81U, the self-cleavage worked out at 0.29. Under A5U C17U A35U stands 0.76; under A5U G33C U49C U54C, 0.25; under A5U G8U G10U A18G A20U, 0.16. The value for A5U C17G A47G was 0.08. The value for A5U C11U A20U G33A U54C A64U U72A was 0.15; that for A5U A21U U78C was 0.32; that for A5U U31C U41G A75G U78C was 0.19. Turning to A5U A28G C32A A64G U66C, the self-cleavage was found to be 0.3. On to A5U G9A A13U U26G A65G, for which the self-cleavage came to 0.26. The value for A5U G33C U51C A56G U58C A64U was 0.26; that for A5U C38U A47G U67C A75G was 0.18; that for A5U A20U U41C U43C U54A U74C was 0.55. Under A5U G10A A15G C29U U48C U54A stands 0.05; under A5U G9A U43A A56G, 0.37; under A5U A28G C39A U41C, 0.59. Under A5U C37U A45U U67C U74A stands 0.13; under A5U A21G C40U U48C U54C U69C C71U, 0.07; under A5U G33U C38G U67C U78C, 0.14. As to A5U A28G U43G A64U, the self-cleavage came out at 0.14. As to A5U C17G U67C, the self-cleavage amounted to 0.24. The value for A5U C23U A77U was 0.35.

For the origin of these results see the RNAGym collection of RNA variant scans (doi:10.1093/nar/gkz1192).
